According to PubChem BioAssay AID720542 (National Center for Advancing Translational Sciences (NCATS), 2013):
The campaign covered roughly 360,000 compounds. About 740 (0.21%) were called active. Inconclusive means that the source gave no clear call. Such entries were picked first, then a sample of the others. Calls come from the whole dose curve; as a rule, active = well fitted inhibition curve with a large enough effect; inconclusive = small, poorly fitted or top-dose-only effect; inactive = no such curve, though single readings can be large or run the other way. No potency is given beside an inconclusive call; the fits are too rough.

System: Plasmodium falciparum AMA1 (3D7) - RON2 peptide interaction
Assay: qHTS for Inhibitors of AMA1-RON; Towards Development of Antimalarial Drug Lead: Primary Screen; note: nearly all actives have a fitted effect of over 45% in size;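 for activity change, negative = inhibition: 0% = vehicle wells and -100% = peptide control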
Conditions: AlphaScreen AMA1-biotinylated RON2 peptide binding; activity change, negative = inhibition: at 58.2 µM (top of the series) unless noted
Procedure, shortened: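 AMA1 (3D7) with his tag at 25 nM final met compounds first, then biotinylated RON2 peptide at 25 nM; detection used donor plus acceptor beads, 10 µg/mL apiece, read by AlphaScreen after 30 min at room temperature.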
Potency is the fitted concentration of half-maximal effect; tags give direction and shape of the fitted curve.

Compound	Potency	activity change, negative = inhibition
Cc1cccc(N2CCN(C(=S)c3ccccc3)CC2)c1	inconclusive [inhibitor, partial curve]	
O=C(CCN1CCN(c2ccccc2)CC1)N/N=C/c1ccc(O)c(O)c1O	inconclusive [inhibitor, single point]	
Cn1ccc2c(N3CCOCC3)cc3c(c21)C1CCC3C1 (stereo not given)	inconclusive [inhibitor, single point]	
Cc1ccc2oc(C(=O)N3CCN(c4cccc(C)n4)CC3)c(C)c2c1	inconclusive [inhibitor, single point]	
COc1ccc(NC(=O)C(OC(=O)c2cnc(C)cn2)c2ccccc2)cc1Cl (stereo not given)	inconclusive [inhibitor, single point]	
COc1ccccc1N1CCN(C2CCCN(C(=O)c3oc(C)cc3C)C2)CC1 (stereo not given)	inconclusive [inhibitor, full curve]	
O=C(c1ccccc1)N1CCN(c2ccc([N+](=O)[O-])c(NCC3CCCO3)c2)CC1 (stereo not given)	inconclusive [inhibitor, partial curve]	
CNC(=O)COc1coc(CN2CCN(c3ccccc3)CC2)cc1=O		inactive: -2.68%
CN(C)c1ccc(N=Nc2nccs2)cc1	active: 11.2 µM	
Cc1ccc(SCCN2CCN(Cc3ccccc3)CC2)cc1	inconclusive [inhibitor, partial curve]	
CC(=NNC(=S)N1CC2CCC(CC2)C1)c1nccs1	inconclusive [inhibitor, single point]	
COc1cc(/C=C/c2[nH]c(=O)[nH]c(=O)c2[N+](=O)[O-])cc(OC)c1O	inconclusive [inhibitor, single point]	
O=C(Nc1nnc(-c2ccncc2)o1)c1ccc2ccccc2c1		inactive: 91.9%
O=[N+]([O-])c1ccc(S(=O)(=O)Nc2cccc(-c3ccc(N4CCCC4)nn3)c2)cc1	inconclusive [inhibitor, partial curve]	
COc1ccc(N2CCN(C(=O)c3ccc(N(C)S(=O)(=O)c4ccc(OC)cc4)cc3)CC2)cc1	inconclusive [inhibitor, partial curve]	
COCCn1c(C)cc(C(=O)CSc2nnnn2C2CCCC2)c1C	inconclusive [inhibitor, partial curve, poor fit]	
CCOC(=O)c1cc2occc2n1CC(=O)Nc1ccc(OC)cc1OC		inactive: -18.5%
O=C(Nc1ccc(-c2nnco2)cc1)c1ccccc1		inactive: 55.9%
CCOc1cc(N2CCOCC2)c(OCC)cc1NC(=S)NCCCOC	inconclusive [inhibitor, full curve]	
COc1ccc(NC2CCCCC2NS(=O)(=O)c2ccc(C)cc2)cc1 (stereo not given)	inconclusive [inhibitor, partial curve]	
CSC12CCCN(CCC(C(C)(C)C)C1)C2=O (stereo not given)		inactive: 24.8%
CCc1ccc(C2c3[nH]c4ccccc4c3CCN2C(=O)c2ccc(=O)n(C)n2)cc1 (stereo not given)	inconclusive [inhibitor, partial curve, poor fit]	
COc1ccc(CN2CCN(S(=O)(=O)c3ccc(NC(C)=O)cc3)CC2)cc1	inconclusive [inhibitor, single point]	

Compound	Potency	activity change, negative = inhibition
CCOC(=O)N1CCC(N2C(=O)c3ccccc3C2Nc2cc(Cl)c(OC)cc2OC)CC1 (stereo not given)		inactive: -19.7%
CC(C)(C)n1ncc2c(=O)n(Cc3ccc(Cl)cc3Cl)cnc21		inactive: -20.9%
Cc1n[nH]c(=S)n1-c1ccccc1		inactive: 0.692%
COc1cc(OC)c(OC)cc1CN1CCN(C(=O)c2cccc3ccccc23)CC1	inconclusive [inhibitor, single point]	
CC1=NN(c2ccccc2)C(=O)/C1=C\c1sccc1C	inconclusive [inhibitor, full curve]	
CN(C)c1ccc(Nc2nc(-c3cccnc3)cs2)cc1	inconclusive [inhibitor, single point]	
O=C(Nc1ccc2c(c1)OCCO2)c1cccc(Br)c1		inactive: -6.43%
Cc1cccc(C)c1-n1nnnc1C(c1cc2ccccc2o1)N1CCN(C/C=C/c2ccccc2)CC1 (stereo not given)	inconclusive [inhibitor, partial curve]	
CCOC(=O)C1=C(C)NC(=O)NC1c1ccc2c(c1)OCCO2 (stereo not given)	inconclusive [inhibitor, single point]	
CN(C)c1ccc(-c2csc(C(O)c3ccc(F)c(F)c3)n2)cc1 (stereo not given)	inconclusive [inhibitor, single point]	
Fc1ccccc1N=C1NN=C(c2ccccc2)CS1	inconclusive [inhibitor, partial curve, poor fit]	
O=[N+]([O-])c1ccc(N2CCN(c3ccccn3)CC2)c(Cl)c1	inconclusive [inhibitor, single point]	
Cc1cc(C=O)c(C)n1-c1ccc(NC2CCCC2)c([N+](=O)[O-])c1	inconclusive [inhibitor, partial curve]	
CCOC(=O)C(CC)Sc1ncnc2nc[nH]c12 (stereo not given)		inactive: 1.38%
CC1CCN(S(=O)(=O)c2cn(CC(=O)N3CC(C)CC(C)C3)c(=O)c3ccccc23)CC1 (stereo not given)	inconclusive [inhibitor, partial curve]	
Cc1nc(NC(=O)c2ccccc2)sc1Cc1ccc2c(c1)OCO2	inconclusive [inhibitor, single point]	
CCC(=O)N1CCc2cc(Br)cc(S(=O)(=O)N3CCC(C(=O)NCCCOC(C)C)CC3)c21		inactive: 14.7%
Cc1noc(C)c1CSc1ccccc1C(=O)Nc1nccs1	inconclusive [inhibitor, single point]	
Cc1ccc(C(=O)/C=C/C(=O)c2ccc(C)cc2)cc1		inactive: -14.9%
O=C1CCCCC1Nc1ccc(Br)cc1 (stereo not given)	inconclusive [inhibitor, single point]	
COc1ccc(NC2c3ccccc3C(=O)N2Cc2ccc3c(c2)OCO3)cc1 (stereo not given)	inconclusive [inhibitor, single point]	
O=C(CN1CCOCC1)Nc1ccc2c(c1)OCCO2	inconclusive [inhibitor, single point]	
